Experimental findings from the supplement of paper PMC4604168 (melanoma cell lines) are described below.

SMILES strings stand for the structures. This is one part of the list. Most values come without repeats; read them as rough.
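Further: cells treated in 1,536-well plates, then fixed and DAPI-stained, with nuclei counted from automated high-throughput microscope images.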

For this assay, the system named is WM451Lu. Put plainly: cell count relative to DMSO control; melanoma cells; higher = more viable cells. To be noted: library dose: standard library concentration; 72 h.
In turn, `N#CC[C@H](C1CCCC1)n1cc(-c2ncnc3[nH]ccc23)cn1` [ruxolitinib] + O=C(O)c1ccc(-c2c[nH]c3ncc(-c4ccccc4)cc23)cc1C1CCCC1 [GSK650394] (first compound 5 µM, partner dose 0.8 µM) gave a cell count of 104%. `CC[C@]1(O)C[C@H]2CN(CCc3c([nH]c4ccccc34)[C@@](C(=O)OC)(c3cc4c(cc3OC)N(C=O)[C@H]3[C@@](O)(C(=O)OC)[C@H](OC(C)=O)[C@]5(CC)C=CCN6CC[C@]43[C@@H]65)C2)C1` [vincristine] + OCCn1cc(-c2cnc3nnn(Cc4ccc5ncccc5c4)c3n2)cn1 [PF04217903] (first compound 0.0005 µM, partner dose 5 µM): the cell count turned out to be 41.6%. Regarding `Cc1cc(Nc2cc(N3CCN(C)CC3)nc(Sc3ccc(NC(=O)C4CC4)cc3)n2)n[nH]1` [Tozasertib] + CC1(C)NC(=O)N(c2ccc([N+](=O)[O-])c(C(F)(F)F)c2)C1=O [nilutamide] (first compound 0.03 µM, partner dose 5 µM), the cell count was determined as 112%. For `Cc1cc(Nc2cc(N3CCN(C)CC3)nc(Sc3ccc(NC(=O)C4CC4)cc3)n2)n[nH]1` [Tozasertib] + NC(=O)Nc1cc(-c2cccc(F)c2)sc1C(=O)N[C@H]1CCCNC1 [AZD7762] (first compound 0.03 µM, partner dose 0.1 µM), the cell count was determined as 77.2%.

Molecule `Cc1cc(Nc2cc(N3CCN(C)CC3)nc(Sc3ccc(NC(=O)C4CC4)cc3)n2)n[nH]1` [Tozasertib] + CN(NC(=O)CC(=O)NN(C)C(=S)c1ccccc1)C(=S)c1ccccc1 [STA4783] (first compound 0.03 µM, partner dose 0.03 µM) came in with a cell count of 80.6%.
